Laboratory results published in PubChem BioAssay AID463173 (ICCB-Longwood Screening Facility, Harvard Medical School, 2010).
Out of some 52,000 compounds screened, about 1,700 (3.3%) were called active. Rule as the data show it: active = survival mostly below about 52% (no sharp cut-off); inactive = mostly above about 56%. Some of the results follow.

These molecules were tested on Wild type (assay: growth inhibition of S. aureus wild type versus tarO mutant, primary screen, teichoic acid synthesis inhibitors, RN4220, OD600 (AID 463173)). Conditions: S. aureus RN4220 wild type/DeltatarO growth, OD600, 18 h, active compounds read low, screened at 18.75 µg/mL (by protocol).

With `CCCNC(=O)c1cc2n(n1)CCCN(Cc1ccc(C)cc1)C2=O` as the molecule, how does the survival read?
The survival was inactive: 129%.

`CCOc1ccc(NC(=O)CSc2oc(-c3ccco3)nc2S(=O)(=O)c2ccccc2)cc1` was tested. Which survival did it give?
Its survival is inactive: 74%.

Which survival does the source give for `Cc1ccc(NC(=O)c2oc3ccc(S(=O)(=O)N(C)C4CCCCC4)cc3c2C)c(C)c1` here?
The survival was inactive: 102%.

How did the survival turn out when `COc1ccc(-c2nc(C)c(CCNC(=O)c3ccc(C(F)(F)F)cc3)s2)cc1OC` was run?
The survival was active: -4%.

`COc1ccc(CNC(=O)CCCc2nnc3n(C(C)C)c(=O)c4sccc4n23)cc1` was tested. Which survival did it give?
The survival was inactive: 102%.

How did the survival turn out when `O=C(COc1ccccc1F)Nc1ccc2nc(SCC(=O)N3CCOCC3)sc2c1` was run?
The survival was inactive: 92%.

For `O=S(=O)(c1ccccc1)c1nc(-c2ccc(F)cc2)oc1NCc1ccccc1`, which survival is on record?
Its survival is inactive: 84%.

With `COC(=O)C1C(c2ccccc2)C(C(=O)N2CCOCC2)C1c1ccccc1` (stereo not drawn) as the molecule, how does the survival read?
Its survival is inactive: 128%.

For `Cc1c(-c2nsc(NC(=O)c3cccs3)n2)nnn1-c1ccc(F)cc1`, which survival is on record?
The survival was inactive: 72%.

For `COc1ccccc1CNC(=O)CCS(=O)(=O)c1ccc2c(c1)oc(=O)n2C`, which survival is on record?
Its survival is inactive: 71%.

With `CCOC(=O)c1cccc(NC(=O)CSc2ncc3c(n2)-c2ccc(Cl)cc2N(Cc2ccccc2)S3(=O)=O)c1` as the molecule, how does the survival read?
Its survival is inactive: 87%.

How did the survival turn out when `CCOc1ccc(CNC(=O)CSc2c3c(nc4cc(Cl)ccc24)CCCC3)cc1` was run?
The survival was inactive: 74%.

For `O=C(NCCc1ccccc1)c1ccc2c(c1)nc1n2CCOC1`, which survival is on record?
Its survival is inactive: 129%.

How did the survival turn out when `O=C(CN1CCOCC1)Nc1nc(-c2ccc3c(c2)CCN3S(=O)(=O)c2ccccc2)cs1` was run?
Its survival is inactive: 109%.

`Cc1ccc(S(=O)(=O)Nc2cc(Cl)c3oc4c(c3c2)CCCC4)cc1` was tested. Which survival did it give?
Its survival is inactive: 85%.

With `CCN(CC)S(=O)(=O)c1ccc2c(c1)N(CC(=O)Nc1c(C)cccc1C)C(=O)C1CCCN21` (stereo not drawn) as the molecule, how does the survival read?
Its survival is inactive: 73%.

Which survival does the source give for `Cc1c(C)n(Cc2ccccc2)c2ccc(C(=O)N3CCN(c4ccccc4)CC3)cc12` here?
The survival was inactive: 78%.

For `COc1ccc(C(=O)NC(c2ccccc2Cl)c2cc(Cl)c3cccnc3c2O)cc1` (stereo not drawn), which survival is on record?
The survival was inactive: 69%.

How did the survival turn out when `CCOC(=O)c1oc2c(c1C)-c1nn(Cc3cccc(Cl)c3)cc1CC2` was run?
The survival was inactive: 66%.

Which survival does the source give for `COC(=O)CN(C#N)c1nc(C)cc(C)n1` here?
The survival was inactive: 107%.

`CC(C)Oc1ccc(C(=O)N(Cc2ccc(N(C)C)cc2)Cc2ccco2)cc1` was tested. Which survival did it give?
The survival was inactive: 74%.

For `Cc1ccc(OCC(=O)NCC(=O)OCc2cc(=O)n3nc(C(C)C)sc3n2)cc1`, which survival is on record?
Its survival is inactive: 113%.

How did the survival turn out when `COc1ccc(-c2nsc3c(N4CCCCC4C)ncnc23)cc1` (stereo not drawn) was run?
Its survival is inactive: 124%.

With `O=C(Nc1ccc(N2CCOCC2)cc1)C12CC3CC(CC(C3)C1)C2` as the molecule, how does the survival read?
Its survival is inactive: 102%.

For `O=C(CCS(=O)(=O)c1ccc(Br)s1)Nc1cc(C(F)(F)F)cc(C(F)(F)F)c1`, which survival is on record?
Its survival is inactive: 80%.

For `O=c1[nH]n(CC2COC(c3ccccc3)O2)c(=O)c2ccccc12` (stereo not drawn), which survival is on record?
Its survival is inactive: 106%.

How did the survival turn out when `CCN(C(=O)Cn1c(=O)oc2cc(S(=O)(=O)N3CCCCCC3)ccc21)c1cccc(C)c1` was run?
Its survival is inactive: 83%.

Which survival does the source give for `COc1ccc(-c2nc(CSCC(=O)N3CCN(c4ccccc4F)CC3)c(C)o2)cc1` here?
The survival was inactive: 24%.

For `Cc1cccc(OC(=O)c2snnc2C)c1`, which survival is on record?
The survival was inactive: 83%.

With `Cc1cccc(C)c1Nc1c(-c2ccccn2)nc2ccc(Cl)cn12` as the molecule, how does the survival read?
The survival was inactive: 131%.

`O=C(NCc1ccccc1)NC1COc2ccccc2C1` (stereo not drawn) was tested. Which survival did it give?
Its survival is inactive: 82%.

`Cn1cc(S(=O)(=O)N2CCCCCC2)cc1C(=O)NCc1ccc(F)cc1` was tested. Which survival did it give?
Its survival is inactive: 71%.

How did the survival turn out when `CCOc1ccccc1NC(=O)CSc1ncc2c(n1)-c1ccccc1N(CC)S2(=O)=O` was run?
The survival was inactive: 81%.

`COc1ccc(CNCc2ccc(C(=O)O)s2)cc1` was tested. Which survival did it give?
Its survival is inactive: 86%.

Which survival does the source give for `COCCn1c(-c2ccccc2)n[nH]c1=S` here?
The survival was inactive: 106%.

For `O=C(NCCc1ccc(Cl)cc1)c1ccc(Nc2nc3ccccc3n3nnnc23)cc1`, which survival is on record?
The survival was inactive: 81%.

For `COc1ccc(NC(=O)c2nc(SCc3ccc(F)cc3)ncc2Cl)cc1`, which survival is on record?
Its survival is inactive: 85%.

With `CCOc1ccc(NC(=O)c2sc(-n3nc(C)c(CCC(C)C)c3C)nc2C)cc1` as the molecule, how does the survival read?
The survival was inactive: 123%.

How did the survival turn out when `Cc1cccc(NC(=O)C(=O)NCCCN2CCOCC2)c1` was run?
Its survival is inactive: 123%.

How did the survival turn out when `Cc1ccc(-n2ncc3c(NCCc4ccc(S(N)(=O)=O)cc4)ncnc32)cc1` was run?
The survival was inactive: 71%.

With `Cc1ccccc1Nc1c(-c2ccc(N3CCOCC3)cc2)nc2cccc(C)n12` as the molecule, how does the survival read?
Its survival is inactive: 59%.

`CCC(C)Nc1nc2c(c(=O)[nH]c(=O)n2C)n1Cc1ccc(F)cc1` (stereo not drawn) was tested. Which survival did it give?
The survival was inactive: 69%.

Which survival does the source give for `CCOc1ccccc1CNC(=O)c1ccc2nc(N3CCC(C)CC3)sc2c1` here?
The survival was inactive: 84%.

Which survival does the source give for `C=Cc1ccc(Cn2c(C(=O)O)c(CNCCc3ccco3)c3ccc(C)cc32)cc1` here?
The survival was inactive: 131%.

How did the survival turn out when `COC(=O)c1cc2sccc2n1Cc1nc(-c2cccc(Cl)c2)oc1C` was run?
The survival was inactive: 61%.

How did the survival turn out when `CC1=C(c2ccc(C)cc2)S(=O)(=O)NC1=NCc1ccccc1Cl` was run?
Its survival is inactive: 81%.

How did the survival turn out when `CCCCOC(=O)CSc1ncnc2sc3c(c12)CCC(C)C3` (stereo not drawn) was run?
The survival was active: 15%.

How did the survival turn out when `Cc1ccc2oc(-c3cccc(NC(=O)c4cccc5c(Cl)cccc45)c3)nc2c1` was run?
The survival was inactive: 70%.

How did the survival turn out when `CCCCn1c(CCCNC(=O)c2cccc(C)c2)nc2ccccc21` was run?
The survival was inactive: 73%.

For `Cc1nc2cc(-c3cccc(F)c3)nn2c(C)c1CCC(=O)Nc1ccccc1C(N)=O`, which survival is on record?
Its survival is inactive: 73%.

How did the survival turn out when `Cc1cccc(NC(=O)c2ccc(CN3CC(=O)N4CCCCC4C3=O)cc2)c1C` (stereo not drawn) was run?
The survival was inactive: 64%.

How did the survival turn out when `COCCNC(=O)Cn1nc(-c2ccc(C)cc2)c2ccccc2c1=O` was run?
The survival was inactive: 73%.

How did the survival turn out when `COc1ccc(CNc2nc(-c3ccc(Cl)cc3)cc(C(F)(F)F)n2)cc1` was run?
The survival was active: -4%.

How did the survival turn out when `COc1cccc(Cn2nnc3c(=O)[nH]c(C4CCCN(C(=O)c5ccccc5Cl)C4)nc32)c1` (stereo not drawn) was run?
Its survival is inactive: 104%.

With `Cc1cc(N2CCN(c3cccc(C)c3C)CC2)nc(-c2ccccc2)n1` as the molecule, how does the survival read?
The survival was inactive: 90%.

For `CCc1ccccc1NC(=O)COCc1cc(-c2ccco2)on1`, which survival is on record?
The survival was inactive: 65%.

Which survival does the source give for `Cc1cccc2cc3c(nc12)SC(=NCc1ccco1)N(Cc1cccs1)C3` here?
Its survival is inactive: 104%.

`COC(=O)c1c(-c2ccc(Cl)cc2)noc1N1CCN(c2ccccc2OC)CC1` was tested. Which survival did it give?
The survival was inactive: 70%.
